# According to the supplement of paper PMC8728848:
# The other results are listed elsewhere or left out.
# Legend:
# Assay in all cases: glycan array binding signal (z-score within array); higher = stronger binding
# Settings in all cases: glycan notation: IUPAC condensed, linker removed; mutation: Y228A
# [1] = molecular target: Neu5Ac(a2-3)Gal(b1-3)GlcNAc(b1-6)GalNAc
# Summary of the method: (§1)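 Glycan array data were curated from 3228 arrays in the Consortium for Functional Glycomics database and kept only where the protein sequence was available. Glycan names were converted to IUPAC-condensed notation, and columns mapping to the same glycan were averaged. The binding signal is a within-array Z-score, averaged across arrays of the same protein sequence at different concentrations or buffers and across linkers. Negative Z-scores can be read as non-binding.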
# [2] = molecular target: Neu5Ac(a2-3)Gal(b1-3)GlcNAc6S
# Summary of the method: as §1
# [3] = molecular target: Neu5Ac(a2-3)Gal(b1-3)[Fuc(a1-4)]GlcNAc
# Summary of the method: as §1
# [4] = molecular target: Neu5Ac(a2-3)Gal(b1-3)[Fuc(a1-4)]GlcNAc(b1-3)Gal(b1-3)[Fuc(a1-4)]GlcNAc
# Summary of the method: as §1
# [5] = molecular target: Neu5Ac(a2-3)Gal(b1-3)[Fuc(a1-4)]GlcNAc(b1-3)Gal(b1-4)[Fuc(a1-3)]GlcNAc
# Summary of the method: as §1
# [6] = molecular target: Neu5Ac(a2-3)Gal(b1-3)[GlcNAc(b1-6)]GalNAc
# Summary of the method: as §1
# [7] = molecular target: Neu5Ac(a2-3)Gal(b1-3)[Neu5Ac(a2-6)]GalNAc
# Summary of the method: as §1
# [8] = molecular target: Neu5Ac(a2-3)Gal(b1-3)[Neu5Ac(a2-6)]GlcNAc(b1-3)[Fuc(a1-3)[Gal(b1-4)]GlcNAc(b1-6)]Gal(b1-4)Glc
# Summary of the method: as §1
# [9] = molecular target: Neu5Ac(a2-3)Gal(b1-3)]Neu5Ac(a2-3)Gal(b1-4)]GlcNAc
# Summary of the method: as §1
# Neu5Ac(a2-3)Gal(b1-4)Glc = molecular target: Neu5Ac(a2-3)Gal(b1-4)Glc
# Summary of the method: as §1
# [10] = molecular target: Neu5Ac(a2-3)Gal(b1-4)GlcNAc
# Summary of the method: as §1
# [11] = molecular target: Neu5Ac(a2-3)Gal(b1-4)GlcNAc(b1-2)Man
# Summary of the method: as §1
# [12] = molecular target: Neu5Ac(a2-3)Gal(b1-4)GlcNAc(b1-2)Man(a1-3)[GlcNAc(b1-4)][Neu5Ac(a2-3)Gal(b1-4)GlcNAc(b1-2)Man(a1-6)]Man(b1-4)GlcNAc(b1-4)GlcNAc
# Summary of the method: as §1
# [13] = molecular target: Neu5Ac(a2-3)Gal(b1-4)GlcNAc(b1-2)Man(a1-3)[Neu5Ac(a2-3)Gal(b1-4)GlcNAc(b1-2)Man(a1-6)]Man(b1-4)GlcNAc(b1-4)GlcNAc
# Summary of the method: as §1
# [14] = molecular target: Neu5Ac(a2-3)Gal(b1-4)GlcNAc(b1-2)Man(a1-3)[Neu5Ac(a2-3)Gal(b1-4)GlcNAc(b1-2)Man(a1-6)]Man(b1-4)GlcNAc(b1-4)[Fuc(a1-6)]GlcNAc
# Summary of the method: as §1
# [15] = molecular target: Neu5Ac(a2-3)Gal(b1-4)GlcNAc(b1-2)Man(a1-3)[Neu5Ac(a2-6)Gal(b1-4)GlcNAc(b1-2)Man(a1-6)]Man(b1-4)GlcNAc(b1-4)GlcNAc
# Summary of the method: as §1
# [16] = molecular target: Neu5Ac(a2-3)Gal(b1-4)GlcNAc(b1-2)[Neu5Ac(a2-3)Gal(b1-4)GlcNAc(b1-4)]Man(a1-3)[GlcNAc(b1-4)][Neu5Ac(a2-3)Gal(b1-4)GlcNAc(b1-2)[Neu5Ac(a2-3)Gal(b1-4)GlcNAc(b1-6)]Man(a1-6)]Man(b1-4)GlcNAc(b1-4)GlcNAc
# Summary of the method: as §1
# [17] = molecular target: Neu5Ac(a2-3)Gal(b1-4)GlcNAc(b1-2)[Neu5Ac(a2-3)Gal(b1-4)GlcNAc(b1-4)]Man(a1-3)[GlcNAc(b1-4)][Neu5Ac(a2-3)Gal(b1-4)GlcNAc(b1-4)Man(a1-6)]Man(b1-4)GlcNAc(b1-4)GlcNAc
# Summary of the method: as §1
# [18] = molecular target: Neu5Ac(a2-3)Gal(b1-4)GlcNAc(b1-2)[Neu5Ac(a2-3)Gal(b1-4)GlcNAc(b1-6)]Man(a1-6)[Neu5Ac(a2-3)Gal(b1-4)GlcNAc(b1-2)Man(a1-3)][GlcNAc(b1-4)]Man(b1-4)GlcNAc(b1-4)GlcNAc
# Summary of the method: as §1
# [19] = molecular target: Neu5Ac(a2-3)Gal(b1-4)GlcNAc(b1-3)Gal
# Summary of the method: as §1
# [20] = molecular target: Neu5Ac(a2-3)Gal(b1-4)GlcNAc(b1-3)Gal(b1-3)GlcNAc
# Summary of the method: as §1
# [21] = molecular target: Neu5Ac(a2-3)Gal(b1-4)GlcNAc(b1-3)Gal(b1-4)GlcNAc
# Summary of the method: as §1
# [22] = molecular target: Neu5Ac(a2-3)Gal(b1-4)GlcNAc(b1-3)Gal(b1-4)GlcNAc(b1-2)Man(a1-3)[Neu5Ac(a2-3)Gal(b1-4)GlcNAc(b1-3)Gal(b1-4)GlcNAc(b1-2)Man(a1-6)]Man(b1-4)GlcNAc(b1-4)GlcNAc
# Summary of the method: as §1
# [23] = molecular target: Neu5Ac(a2-3)Gal(b1-4)GlcNAc(b1-3)Gal(b1-4)GlcNAc(b1-3)Gal(b1-4)GlcNAc
# Summary of the method: as §1
# [24] = molecular target: Neu5Ac(a2-3)Gal(b1-4)GlcNAc(b1-3)Gal(b1-4)GlcNAc(b1-3)Gal(b1-4)GlcNAc(b1-2)Man(a1-3)[Neu5Ac(a2-3)Gal(b1-4)GlcNAc(b1-3)Gal(b1-4)GlcNAc(b1-3)Gal(b1-4)GlcNAc(b1-2)Man(a1-6)]GalNAc
# Summary of the method: as §1
# [25] = molecular target: Neu5Ac(a2-3)Gal(b1-4)GlcNAc(b1-3)Gal(b1-4)GlcNAc(b1-3)GalNAc
# Summary of the method: as §1
# [26] = molecular target: Neu5Ac(a2-3)Gal(b1-4)GlcNAc(b1-3)Gal(b1-4)GlcNAc(b1-3)[Neu5Ac(a2-3)Gal(b1-4)GlcNAc(b1-3)Gal(b1-4)GlcNAc(b1-6)]GalNAc
# Summary of the method: as §1
# [27] = molecular target: Neu5Ac(a2-3)Gal(b1-4)GlcNAc(b1-3)Gal(b1-4)GlcNAc(b1-6)[Gal(b1-3)]GalNAc
# Summary of the method: as §1
# [28] = molecular target: Neu5Ac(a2-3)Gal(b1-4)GlcNAc(b1-3)Gal(b1-4)[Fuc(a1-3)]GlcNAc
# Summary of the method: as §1
# [29] = molecular target: Neu5Ac(a2-3)Gal(b1-4)GlcNAc(b1-3)GalNAc
# Summary of the method: as §1
binder,measurement,setting,value
"Epa1-NP-mutant-Y228A (Candida glabrata), Q6VBJ0 (protein) MILNPALFLNKCVCIYTTLILLLLTNGGYATSSNDISLASKDPTTFPLGCSPDITTPKKGLSMELYSYDFRKKGSYPCWDAAYLDPNYPRTGYKSHRLLAKVDGVTGNINFYYHATKGCTPQLGHLPASYNYPKPLTMTNFTMLLYGYFRPKVTGFHTFTISADDLLFVNFGAGNAFDCCRRDSSADHFGNYQAYAIWGSKTAKDELTVHLDAGVYYPIRLFYNNREADGALSFTFKTESNENTVSDFSEYFFSLDDTEEGCPGLISYDSSCASVKTSKIIGIDYHTETPNENLVPITKTIYHLGIPCTGTTTTPLCGSGFYDPLANKCVTINTSSTSSVTKTTSHTTSKEVSFHSSISSQKTLIPKSIPSPYGPIKSQSIPTEMETSSEISSSEYAFSDVISTPSHSPYTKKHSSLNSSSYTSTVIHSLTSYSISQGIFSTSLSEQNITSKSSTDKFSTATSMSNNITQSSIIISQFSTNNENYTTTSMHTSSDKISTETLNNSISTTTSILFSNSSTILKNNTTIISSDKDTHYHPVNPTIVCSTNKTEIICASITQPSISNSNNHWSSSVLKFNSTTVRSTLPSSAGSNETSINVPFSSSTESNTSTSSTSTSNSKMVRSTLPSSAGSNETSISVPFSSSTESNTSTSSTSTSNSKMVRSTLPSSAGSNETSINVPFSSSTESNTSTSSTSTSNSKTVRSTPFSSAGIIMTSLSQRNNKSASSYASSNSKCYNTADSCRKVHSTPSYLLTSSYTSEGVDYDCSLVSTKLKINDTNCVNNKHTTKSCLKTSVTTTIPTLEIKTARKSSSNTIGLHSYPTSSPNKSISSAPIIGYISSFKTIKTASPSYQTSDLTTITTITSLNNPGSTAVENTHESNDKSRKTSSNDISSKHSVIKETKDAVESSNKSHQTNTLKCSSIIIASSSHNSYESLGGTTLTLTLSKVYSPQNNDTLPFLEISEVNPSRTVLPESSKMMQYLTSTEERNKTARNTIATNIVSISTFHFEGEGNAIRMGYTQLLLMLIGIIVMNIGT",glycan array binding signal (z-score),[1],-0.295
same,glycan array binding signal (z-score),[2],-0.164
same,glycan array binding signal (z-score),[3],-0.24
same,glycan array binding signal (z-score),[4],-0.128
same,glycan array binding signal (z-score),[5],-0.243
same,glycan array binding signal (z-score),[6],-0.217
same,glycan array binding signal (z-score),[7],-0.228
same,glycan array binding signal (z-score),[8],-0.172
same,glycan array binding signal (z-score),[9],-0.224
same,glycan array binding signal (z-score),Neu5Ac(a2-3)Gal(b1-4)Glc,-0.112
same,glycan array binding signal (z-score),[10],-0.231
same,glycan array binding signal (z-score),[11],-0.094
same,glycan array binding signal (z-score),[12],-0.274
same,glycan array binding signal (z-score),[13],-0.225
same,glycan array binding signal (z-score),[14],-0.172
same,glycan array binding signal (z-score),[15],-0.237
same,glycan array binding signal (z-score),[16],-0.2
same,glycan array binding signal (z-score),[17],-0.266
same,glycan array binding signal (z-score),[18],-0.291
same,glycan array binding signal (z-score),[19],-0.11
same,glycan array binding signal (z-score),[20],-0.192
same,glycan array binding signal (z-score),[21],-0.038
same,glycan array binding signal (z-score),[22],-0.209
same,glycan array binding signal (z-score),[23],-0.281
same,glycan array binding signal (z-score),[24],0.029
same,glycan array binding signal (z-score),[25],-0.153
same,glycan array binding signal (z-score),[26],-0.127
same,glycan array binding signal (z-score),[27],-0.211
same,glycan array binding signal (z-score),[28],-0.127
same,glycan array binding signal (z-score),[29],-0.218
